What all share (assay): two-hybrid; bacterial two-hybrid (BACTH): CyaT18 and CyaT25 fusions co-expressed in E. coli BTH101 cya-; MacConkey agar with 1% maltose and 0.15 mM IPTG at 28°C; β-galactosidase activity of cultures grown overnight at 28°C
Assay [1] has as its target MinD (PA3244), BACTH fusion (P. aeruginosa) (UniProt Q9HYZ6).
Assay [2] deals with T1, MinC (P. aeruginosa), BACTH fusion (P. aeruginosa) (UniProt Q9HYZ7).
T1 sequence: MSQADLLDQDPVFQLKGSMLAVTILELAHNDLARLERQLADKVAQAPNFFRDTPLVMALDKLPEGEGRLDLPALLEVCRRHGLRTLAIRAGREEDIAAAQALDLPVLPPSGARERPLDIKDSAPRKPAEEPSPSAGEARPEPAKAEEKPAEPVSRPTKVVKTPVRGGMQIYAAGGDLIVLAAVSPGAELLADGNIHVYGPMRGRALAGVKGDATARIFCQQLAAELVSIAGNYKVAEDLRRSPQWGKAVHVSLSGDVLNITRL

For assay [3], the target named is T2, MinE (PA3245), BACTH fusion (P. aeruginosa) (UniProt Q9HYZ5).
T2 sequence: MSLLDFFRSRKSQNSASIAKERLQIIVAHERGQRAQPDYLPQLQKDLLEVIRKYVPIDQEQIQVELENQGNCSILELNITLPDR

The source of these data is paper PMC9927451.

Results are given in words; binding and its absence hold for the method and conditions named. Some entries that bind do so weakly or less than the wild type. Tags and fused reporters may be left off the sequences shown.

B1: MinD (PA3244), BACTH fusion (protein, UniProt Q9HYZ6 1-271)
chain: MAKILVVTSGKGGVGKTTTSAAIGTGLALRGFKTVIVDFDVGLRNLDLIMGCERRVVYDFVNVVNGEATLTQALIKDKRLENLHVLAASQTRDKDALTKEGVEKVMAELRKDFEYIICDSPAGIEKGAHLAMYFADEAIVVTNPEVSSVRDSDRMLGLLASKSQRAEKGEEPIKEHLLLTRYNPERVTKGEMLGVDDVEEILAIRLLGVIPESQAVLKASNQGVPVILDEQSDAGQAYSDAVDRLLGKEIPHRFLDVQKKGFLQRLFGGRE
Regarding B1, the binding entry in assay [1], in assay [2] and in assay [3] was “binds” in each case.

B2: MinC (P. aeruginosa), BACTH fusion (protein, UniProt Q9HYZ7 1-263)
chain: MSQADLLDQDPVFQLKGSMLAVTILELAHNDLARLERQLADKVAQAPNFFRDTPLVMALDKLPEGEGRLDLPALLEVCRRHGLRTLAIRAGREEDIAAAQALDLPVLPPSGARERPLDIKDSAPRKPAEEPSPSAGEARPEPAKAEEKPAEPVSRPTKVVKTPVRGGMQIYAAGGDLIVLAAVSPGAELLADGNIHVYGPMRGRALAGVKGDATARIFCQQLAAELVSIAGNYKVAEDLRRSPQWGKAVHVSLSGDVLNITRL
For the molecule B2, the binding entry in assay [2] is “binds”; in assay [3], “no binding”.

B3: MinE (PA3245), BACTH fusion (protein, UniProt Q9HYZ5 1-84)
chain: MSLLDFFRSRKSQNSASIAKERLQIIVAHERGQRAQPDYLPQLQKDLLEVIRKYVPIDQEQIQVELENQGNCSILELNITLPDR
With B3, the binding result in assay [3] is on record as “binds”.
